EP4620974A1 (Oricell Therapeutics Co., Ltd., dated 2025)
Substitutions are numbered along the chain they refer to. One block for each binder: values may come before it.

Molecular target: T1, human AFP158-166/HLA-A02*01* complex (human)
T1 construct: Soluble complex used as analyte in BLI; source and construct not described; also called AFP/HLA02; human AFP158 peptide/MHC complex
Assay: BLI (ForteBio AHC sensor), antibody captured, complex in solution

Kd: 2.06 nM
koff: 0.00018 s⁻¹
kon: 87500 M⁻¹ s⁻¹
B1: 2F9 (a VHH-Fc antibody containing the nucleotide sequence of the VHH antibody 2F9) (Fc fusion)
chain: EVQLVESGGGLVQPGGSLRLSCAASGRILSRYAMGWFRQAPGKGRELVATISARGSSTYYPDSVEGRFTISRDNAKRMVYLQMNSLRAEDTAVYYCAANDITYTQATYDYWGQGTQVTVSSAAA[human IgG1 Fc omitted here]
notes: also called candidate VHH-Fc antibody 2F9

Kd: < 0.001 nM
koff: < 1e-07 s⁻¹
kon: 42800 M⁻¹ s⁻¹
B2: No.24 (a VHH-Fc antibody containing the nucleotide sequence of the VHH antibody No.24) (Fc fusion)
chain: B1 chain with R54S, S56G, S57T, N99A, T102Y, Y103S, T104S, Q105D, T107D, D109N

Kd: 0.504 nM
koff: 7.01e-05 s⁻¹
kon: 139000 M⁻¹ s⁻¹
B3: 1B3 (a VHH-Fc antibody containing the nucleotide sequence of the VHH antibody 1B3) (Fc fusion)
chain: EVQLVESGGGLVQPGGSLRLSCAASGFTFSNYVMGWFRQAPGKGRELVATISPSGGSTFYPDSVEGRFTISRDNAKRMVYLQMNSLRAEDTAVYYCAAKDIYRPALDYDYWGQGTQVTVSSAAA[human IgG1 Fc omitted here]
notes: also called candidate VHH-Fc antibody 1B3

Kd: 0.259 nM
koff: 1.15e-05 s⁻¹
kon: 44200 M⁻¹ s⁻¹
B4: No.3 (a VHH-Fc antibody containing the nucleotide sequence of the VHH antibody No.3) (Fc fusion)
chain: EVQLVESGGGLVQPGGSLRLSCAASGRTFSSYAMGWFRQAPGKGRELVAAISRTGGSTYYPDSVEGRFTISRDNAKRMVYLQMNSLRAEDTAVYYCAADLYYGPIITEGNYDYWGQGTQVTVSSAAA[human IgG1 Fc omitted here]

Kd: 1.21 nM
koff: 0.00012 s⁻¹
kon: 99400 M⁻¹ s⁻¹
B5: 1C11 (a VHH-Fc antibody containing the nucleotide sequence of the VHH antibody 1C11) (Fc fusion)
chain: B4 chain with F29L, S31R
notes: also called candidate VHH-Fc antibody 1C11

Kd: 1.43 nM
koff: 9.33e-05 s⁻¹
kon: 65300 M⁻¹ s⁻¹
B6: No.8 (VHH-Fc antibody of the VHH antibody No. 8) (Fc fusion)
chain: B4 chain with R27D, F29L, S31R, D112N

Kd: 0.783 nM
koff: 3.38e-05 s⁻¹
kon: 43200 M⁻¹ s⁻¹
B7: No.4 (a VHH-Fc antibody containing the nucleotide sequence of the VHH antibody No.4) (Fc fusion)
chain: B4 chain with R27S, T28I, S31T

Kd: 0.865 nM
koff: 8.72e-05 s⁻¹
kon: 101000 M⁻¹ s⁻¹
B8: 1C4 (a VHH-Fc antibody containing the nucleotide sequence of the VHH antibody 1C4) (Fc fusion)
chain: B4 chain with S31R
notes: also called candidate VHH-Fc antibody 1C4

Kd: 0.811 nM
koff: 6.16e-05 s⁻¹
kon: 75900 M⁻¹ s⁻¹
B9: No.29 (a VHH-Fc antibody containing the nucleotide sequence of the VHH antibody No.29) (Fc fusion)
chain: B4 chain with R27N, Q82H, D112N

Kd: 1.16 nM
koff: 6.17e-05 s⁻¹
kon: 53400 M⁻¹ s⁻¹
B10: No.7 (VHH-Fc antibody of the VHH antibody No. 7) (Fc fusion)
chain: B4 chain with F29L, S31R, D112N

Kd: 3.02 nM
koff: 0.000274 s⁻¹
kon: 90700 M⁻¹ s⁻¹
B11: 1D12 (a VHH-Fc antibody containing the nucleotide sequence of the VHH antibody 1D12) (Fc fusion)
chain: B4 chain with F29L, S31P, D112N
notes: also called candidate VHH-Fc antibody 1D12

Kd: < 0.001 nM
koff: < 1e-07 s⁻¹
kon: 67500 M⁻¹ s⁻¹
B12: No.17 (a VHH-Fc antibody containing the nucleotide sequence of the VHH antibody No.17) (Fc fusion)
chain: EVQLVESGGGLVQPGGSLRLSCAASGLIFSNDYMGWFRQAPGKGRELVATISTRGGTYYPHNVEGRFIIIRDNDKRMVYLLMNSLRAEDTAVYYCAADSIIGYATEYYYCCQGSKVTVSSAAA[human IgG1 Fc omitted here]

Kd: 2 nM
koff: 0.000412 s⁻¹
kon: 206000 M⁻¹ s⁻¹
B13: No.15 (VHH-Fc antibody of the VHH antibody No. 15) (Fc fusion)
chain: EVQLVESGGGLVQPGGSLRLSCAASGLIFSRYYMGWFRQAPGKGRELVAGITRSGGGTYYPDSVEGRFTISRDNAKRMVYLQMNSLRAEDTAVYYCAAEPAGYYQENYDYWGQGTQVTVSSAAA[human IgG1 Fc omitted here]
